Source: PubChem BioAssay AID1508623 (National Center for Advancing Translational Sciences (NCATS), 2021)
About 450 (0.94%) of roughly 48,000 compounds were called active. Roughly 19% stayed inconclusive and do not appear here. Calls follow the shape of the dose curve; as a rule, active = well fitted inhibition curve with a large enough effect; inconclusive = small, poorly fitted or top-dose-only effect; inactive = no such curve, though single readings can be large or run the other way. This is one part of the list.

assay: Primary qHTS for Identification of Small Molecule Inhibitors of Huntingtin Promoter Activity; conditions: HEK293 HTT promoter firefly luciferase reporter (activity 0% = vehicle and -100% = no light), 24 h; series mostly up to 57.5 µM; activity change, negative = inhibition: at the top concentration; also: nearly all actives have a fitted effect of over 50% in size
How it was run: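 HEK293 Fluc reporter, 2,500 cells/well, 24 h pre-culture; cpds up to 57.5 uM final, 24 h 37 degrees C; Dual-Glo, 10 min RT; normalized vehicle = 0%, zero RLU = -100%.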

Activity change, negative = inhibition, inactive:
Cc1cccc(C)c1NC(=O)c1cc(S(=O)(=O)N2CCc3ccccc3C2)ccc1F -16.7%
CCOc1ccc(-c2cc3c(=O)n(CC(=O)NCc4ccc(F)cc4)ccn3n2)cc1 70.2%
CCOC(=O)c1cccc(NC(=O)CCS(=O)(=O)c2ccc3c(c2)CCN3C(=O)CC)c1 -4.64%
COc1cccc2cc(-c3nc(-c4ccc(Cl)cc4)cs3)c(=O)oc12 -4.01%
COC(=O)C[C@](O)(CCCC(C)(C)O)C(=O)O[C@@H]1C(OC)=C[C@]23CCCN2CCc2cc4c(cc2[C@H]13)OCO4 24.8%
CCn1c(=O)c2sccc2n2c(CCCC(=O)N3CCN(c4ccc(F)cc4)CC3)nnc12 -17.3%
CCCCOc1ccc(C(=O)N(Cc2ccccc2)C2CCS(=O)(=O)C2)cc1 (centres undefined) -25.9%
COC(=O)c1ccc(NC(=O)C(=O)NCCc2csc(-c3ccc(F)cc3)n2)cc1 -20.1%
Cc1ccc(O)c(NC(=O)C2=CC(c3ccco3)=NS(=O)(=O)N2C)c1 -20.4%
O=C(CSc1ncccc1C(=O)Oc1ccccc1Cl)Nc1ccc(C(F)(F)F)cc1Cl 18.6%
COc1ccc(N2CCN(Cc3nc4c(c(=O)[nH]c(=O)n4C)n3Cc3ccccc3C)CC2)cc1 1.68%
Cc1csc2nc(COC(=O)CNC(=O)c3ccccc3)cc(=O)n12 -25.5%
Cc1ccc(CN(C(=O)COc2ccccc2[N+](=O)[O-])c2ccccn2)o1 2.82%
O=c1oc2ccccc2cc1-c1cn2cc(Cc3cc(Cl)ccc3Cl)sc2n1 -4.62%
COc1ccc(NC(=O)C2CCCN(S(=O)(=O)c3ccc(F)cc3)C2)cc1 (centres undefined) -14.5%
CCN(CC)S(=O)(=O)c1ccc2c(c1)N(CC(=O)Nc1cccc(C#N)c1)C(=O)CO2 -12.7%
CCc1nnc(NC(=O)CSc2nc3c([nH]c4ccccc43)c(=O)n2-c2ccc(Cl)cc2)s1 -18.2%
FC(F)(F)c1cc(-c2ccccc2)nc2cc(-c3ccccc3)nn12 11.6%
C[C@]12CC[C@@H]3c4ccc(O)cc4CC[C@H]3[C@H]1CC[C@H]2O -5.1%
Cc1cc(F)ccc1NC(=O)Cn1cc(S(=O)(=O)NC(C)C)c(S(=O)(=O)NC(C)C)c1 -9.32% [at 11.5 µM]
CCCCSc1nc2sc3c(c2c(=O)n1-c1ccccc1C)CC(C)(C)OC3 0.947%
COc1ccc(NC(=O)CNC(=O)Cn2c(C)cc3ccccc3c2=O)c(OC)c1 -9.1%
O=C(c1ccccc1)N1CCN(CCc2ccccn2)CC1 -20.5% [at 11.5 µM]
CCOc1ccc(-n2cc(-c3ccccc3)c3c(Nc4cccc(F)c4)ncnc32)cc1 -15.1%
COc1cccc(C(=O)Nc2c(C(=O)Nc3ccc(F)cc3)oc3ccccc23)c1OC 10.2%
CCOc1ccc(C(=O)Nc2nnc(SCc3cc(=O)n4ccccc4n3)s2)cc1 13.1%
Cc1ccc(NC(=O)c2cnc(N3CCCC3)nc2C)cc1F -17.1%
COc1ccc(NC2=C(c3ccc(C(F)(F)F)cc3)C(=O)c3ccccc32)cc1 14.5%
COc1cccc(NC(=O)CN2C(=O)c3ccccc3Sc3ncccc32)c1 3.37%
COc1ccccc1C(=O)Nc1c(C(=O)NC(C)(C)C)oc2ccccc12 -8.03%
CCOC(=O)c1ccc(NC(=O)c2cn3c4c(ccc(Cl)c4c2=O)OC(C)C3)cc1 (centres undefined) -0.501%
COc1ccc(S(=O)(=O)N2CCN(c3ccccc3OC)CC2)cc1 -24.8%
COc1cc(OC)c(N(C)C(=O)Nc2cn(CC(C)C)c(=O)c3ccccc23)cc1Cl -20.5%
CCCc1nn2c(=O)cc(COC(=O)CNC(=O)COc3ccc(C)cc3)nc2s1 -6.59%
Cc1ccc(-c2nc(C)c(CCNC(=O)c3ccccc3Br)s2)cc1 9.39%
NC(=O)c1cccc(-c2cccc(OC(=O)NC3CCCCC3)c2)c1 4.79%
Cc1cccc(-n2c(=O)c3ccccc3n(Cc3ccc(F)cc3)c2=O)c1 -19.9%
Cc1ccc(NC(=O)/C=C/c2ccccc2Cl)cc1Cl 25.6%
Cc1cc2c(cc1S(=O)(=O)Nc1cc(C(F)(F)F)cc(C(F)(F)F)c1)OCC(=O)N2 -22.4%
COc1ccc(NC(=O)C2=C(C)Nc3nc(SCc4ccc(Cl)cc4)nn3C2c2cccc(OC)c2OC)cc1 (centres undefined) -4%
COc1ccc(N(C)C(=O)Cn2cc(S(=O)(=O)N3CCN(c4ccccc4F)CC3)c3ccccc3c2=O)c(OC)c1 -23.1%
Cc1[nH]c(=O)c(C#N)cc1-c1ccc2nccn2c1
Cc1nc2cccnc2n1C1CCN(C(=O)Nc2ccc(Cl)cc2)CC1 9.39%
COC(=O)Cc1c(C)c2ccc3c(c2oc1=O)CN(Cc1ccccc1Cl)CO3 -22.6%
CCCCCCCCOc1ccc(C(=O)c2ccccc2)c(O)c1 -9.7%
COCCNC(=O)c1ccccc1NC(=O)c1nsc2ccccc12 12.6%
CNC(=O)CN1C(=O)COc2ccc(S(=O)(=O)N3CCC(C)CC3)cc21 -21.7%
Cc1ccc(-n2cnnn2)cc1S(N)(=O)=O -12.9%
CCc1cc2c(cc3c(=O)n(CC(=O)NCCc4ccc(OC)cc4OC)nc(CC)n32)s1 -5.61%
COC(=O)Cn1c(SCCOc2ccccc2OC)nc2ccccc21 -7.32%
Cc1cc2[nH]c(=O)c(=O)[nH]c2cc1S(=O)(=O)N1CCN(c2cccc(Cl)c2)CC1 0.855%
CCSc1ncc(Cl)c(C(=O)Nc2cccc(Cl)c2)n1 -33.4%
CCOC(=O)C1(C)C=C(Nc2cccc(C(=O)O)c2)C(=O)N1c1ccccc1 (centres undefined) 19.9%
Cc1ccc2c(=O)cc(C(=O)Nc3c(C)n(C)n(-c4ccccc4)c3=O)oc2c1 -9.96% [at 11.5 µM]
COc1cc(NC(=O)CSc2nc3nc(C)c(Cc4ccccc4Cl)c(C)n3n2)cc(OC)c1 -18.9%
CCCOc1ccc(CNC(=O)C(NS(=O)(=O)c2cccs2)C(C)C)cc1 (centres undefined) -14.9%
COc1cc(Cl)c(C)cc1NC(=O)c1cnc(N2CCCCC2)c2ccccc12 -12.9%
COc1cc2nc(SCc3ccc(C)cc3)n3nc(CCn4nc(C)cc4C)nc3c2cc1OC -5.64%
COC(=O)C(CCSC)Nc1ncnc2onc(-c3ccc(F)cc3)c12 (centres undefined) -8.89%
CC(C)Cn1c(-c2cccc(Br)c2)nc2ccccc21 -28.7%
Cc1cc(C)cc(NC(=O)C(Cc2ccccc2)NS(=O)(=O)c2ccc3c(c2)CCC(=O)N3)c1 (centres undefined) -15%
CCOc1ccccc1NC(=O)C(=O)Nc1ccc2nc3n(c(=O)c2c1)CCCCC3 -24%
Cc1cc(C)cc(NC(=O)Cc2noc3ccccc23)c1 37%
O=C(c1ccccc1)N1c2nc(-c3ccco3)nn2C2(CCCCC2)[C@@H]2CCCC[C@@H]21 -14.1%
Cc1ccccc1OCc1ccc(-c2nc(C#N)c(N3CCN(c4cccc(Cl)c4)CC3)o2)o1 -7.72%
Cc1cc(C)c(NC(=O)C2CCCN(S(=O)(=O)c3c(C)noc3C)C2)c(C)c1 (centres undefined) -17.6%
CCCCCCOc1ccc(C2C(=O)N(C3CCCCC3)CC(=O)N2C2CCCCC2)cc1 (centres undefined) -11.1%
O=C(c1ccc2c(c1)N(Cc1ccc(F)cc1)C(=O)c1ccccc1S2(=O)=O)N1CCCCC1 -9.46%
Cc1ccc(-c2nn3c(C)nnc3c3ccccc23)cc1S(=O)(=O)NCC(C)O (centres undefined) 29.1%
NC(=O)c1cc(S(=O)(=O)N2CCN(c3cccc(C(F)(F)F)c3)CC2)cs1 -4.8%
COc1cc(NC(=O)CSc2c3c(nc4ccccc24)CCC3)cc(OC)c1OC -25.6%
O=C(CSc1nc2ccccc2nc1Cc1ccc(Cl)cc1)N1CCN(c2ccccc2)CC1 -1.59%
Cc1ccc(-n2ncc(C(=O)NCc3ccco3)c2C2CCN(C(=O)OC(C)(C)C)CC2)cc1C -27.9%
Cc1c(C(=O)Nc2cc(F)ccc2F)sc2nc(-c3ccc(F)cc3)cn12 -13.2%
Cc1cccc(C)c1NC(=O)Cn1nnc(S(=O)(=O)c2ccccc2)c1N -8.54%
Cc1ccccc1-c1noc(-c2ccccc2OCC(=O)Nc2cccc([N+](=O)[O-])c2)n1 -10.8%
COc1ccc2c3c1OC1C[C@@H](O)C=C[C@@]31CCN(C)C2 (some centres undefined) -0.836%
N#Cc1c(-c2ccccc2)cc(-c2ccccc2)nc1SCC(O)CS(=O)(=O)Cc1ccc(Cl)cc1 (centres undefined) -35.8%
CCn1cc(/C=C(\NC(=O)c2cc(OC)c(OC)c(OC)c2)C(=O)NCCCn2ccnc2)c2ccccc21 -2.2%
Cc1cc(NC(=O)Cc2ccccc2)cc(-c2nc3ccccc3o2)c1O -6.48%
CCOC(=O)c1cc2c(=O)n3ccccc3nc2n(C(C)C)c1=NC(=O)C(C)(C)Oc1ccc(Cl)cc1 -5.31%
Cc1c(C(=O)NCCN(C)C)oc2c1-c1nn(Cc3cccc(Cl)c3)cc1CC2 0.0754%
CN(C)c1ccc(Nc2ncnc3c2c(-c2ccccc2)cn3-c2cccc(Cl)c2)cc1 -36.6%
Cc1cccc(S(=O)(=O)c2cn(Cc3ccccc3)c3cc(N4CCCCC4)c(F)cc3c2=O)c1 -13.4%
COC(=O)c1ccccc1NS(=O)(=O)c1cc2c(cc1C)N(C)CCO2 -1.22%
CCN(CC)C(=O)c1c(-c2ccccc2)c(-c2ccccc2)nn(CC)c1=O 0.436%
COc1ccccc1N1CCN(C(=O)CN2C(=O)COc3ccc(S(=O)(=O)N4CCOCC4)cc32)CC1 -6.86%
COc1ccc(CCC(=O)NC2CC(=O)N(c3ccc(F)cc3)C2)cc1 (centres undefined) -2.56%
CCN(Cc1nc(-c2ccc(OC)c(OC)c2)no1)S(=O)(=O)c1ccc(OC)cc1 0%
COc1ccc(-c2nc3sc(CCNC(=O)c4ccc(Br)o4)c(C)n3n2)cc1 1.69%
CN1[C@@H]2CC(OC(=O)[C@H](CO)c3ccccc3)C[C@H]1[C@@H]1O[C@@H]12 (some centres undefined) -5.36%
O=C(CSc1nc(=O)n(Cc2ccccn2)c2c1CCC2)Nc1ccccc1 -27.9%
CSc1ccccc1NC(=O)CCS(=O)(=O)c1nc(-c2ccc3c(c2)OCO3)cc(C(F)(F)F)n1 10.1%
CC(C)(C)OC(=O)N1CCC(c2c(C(=O)NC3CCCCC3)cnn2-c2ccc(F)cc2F)CC1 -6.16%
